# Assay results taken from PubChem BioAssay AID504706 (National Center for Advancing Translational Sciences (NCATS), 2011).
# In all, about 320,000 compounds went through this assay and about 200 (0.062%) were called active. Inconclusive means that the source gave no clear call. Such entries were picked first, then a sample of the others. The call rests on the fitted dose curve; in most records, active means well fitted activation curve with a large enough effect; inconclusive means small, poorly fitted or top-dose-only effect; inactive means no such curve, though single readings can be large or run the other way. Potencies of inconclusive entries are left out as doubtful fits.
# Test: qHTS assay for re-activators of p53 using a Luc reporter; further: nearly all actives have a fitted effect of over 45% in size
# Details: H1299 p53-A138V BP100-luciferase reporter, luminescence, 24 h; series mostly up to 92.2 µM
# Procedure, shortened: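 p53-null H1299 cells stably carrying temperature-sensitive p53-A138V and a BP100-luciferase reporter were pinned with compounds (4-point, 1:5 series) and held 24 hrs at 37 deg C. Luminescence was read 10 min after detection reagent.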
# Potency means the concentration at half of the fitted maximal effect; tags describe the fitted curve by direction and shape.
row,SMILES,Potency
1,CNc1ccc(/C=C/C(=O)c2cccc3ccccc23)cc1[N+](=O)[O-],inactive
2,COc1ccc(NC(=O)NC2CCCc3ccccc32)cc1OC (centres undefined),"inconclusive [activator, partial curve, poor fit]"
3,COc1ccc(C(=O)Nc2nc(C)c(C(=O)N(C)C)s2)cc1OC,"inconclusive [activator, partial curve, poor fit]"
4,O=C(/C=C/Nc1ccc(Br)cn1)c1cccc(OC(F)F)c1,"inconclusive [activator, partial curve, poor fit]"
5,COc1ccccc1-c1coc2cc(O)cc(O)c2c1=O,"inconclusive [activator, partial curve, poor fit]"
6,O=C(O)COc1ccc(/C=C/C(=O)c2ccc(C3CCCCC3)cc2)cc1,"inconclusive [activator, partial curve, poor fit]"
7,O=C(c1cc(-c2cccs2)on1)N1CCN(c2ccccc2)CC1,"inconclusive [activator, single point]"
8,COc1ccccc1C(=O)NCc1ccc2c(c1)OCO2,"inconclusive [activator, single point]"
9,CCN(CC)c1ccc(/C=N/NC(=O)c2cnccn2)c(O)c1,"inconclusive [activator, full curve, poor fit]"
10,CCN1C(=O)S/C(=C/c2ccsc2)C1=O,"inconclusive [activator, single point]"
11,Cc1cccc(NC(=O)c2ccoc2C)n1,"inconclusive [activator, single point]"
12,CC1=NN(c2ccccc2)C(=O)C1N=Nc1cccc(O)c1 (centres undefined),"inconclusive [activator, partial curve, poor fit]"
13,O=C(Nc1ccccc1Cl)NC1CCCCCCC1,"inconclusive [activator, partial curve, poor fit]"
14,Cc1nnc(NC(=O)c2cc3ccccc3o2)s1,"inconclusive [activator, single point]"
15,O=C(Nc1cccc2ccccc12)c1ccc(OC(=S)N2CCOCC2)cc1,"inconclusive [activator, partial curve, poor fit]"
16,O=C(/C=C/c1ccc2c(c1)OCCO2)c1ccc(O)cc1,active: 22.4 µM
17,N#C/C(=C\c1ccc(F)cc1)c1nc(-c2ccco2)cs1,"inconclusive [activator, full curve, poor fit]"
18,CC1=[N+](C)c2ccc3ccccc3c2C1(C)C,inactive
19,N#C/C(=C/c1ccc(N2CCCCCC2)o1)c1ccc(Cl)cc1,inactive
20,OC(CNCc1cccnc1)COc1ccc2ccccc2c1 (centres undefined),"inconclusive [activator, single point]"
21,O=[N+]([O-])c1ccc(C=Nc2ccc(Cl)c([N+](=O)[O-])c2)s1,inactive
22,COc1ccccc1NC(=O)Nc1ncccc1C,"inconclusive [activator, single point]"
23,CCCNc1c(NS(=O)(=O)c2ccc(C3CCCCC3)cc2)c(=O)oc2ccccc12,inactive

row,SMILES,Potency
1,Cc1ccc2oc(-c3cccc(NC(=O)/C=C/c4cccc([N+](=O)[O-])c4)c3C)nc2c1,"inconclusive [activator, partial curve, poor fit]"
2,C=C(C)C1CC=C(C)/C(=N/NC(=O)c2ccoc2C)C1 (centres undefined),"inconclusive [activator, partial curve, poor fit]"
3,Cc1ccc(C)c(N(C(=O)CCC(=O)Nc2cc(C)on2)C(C(=O)NC2CCCC2)c2ccco2)c1 (centres undefined),"inconclusive [activator, single point]"
4,CC(=O)c1ccc(OC(=O)c2cccs2)cc1,"inconclusive [activator, single point]"
5,CCCN1C(=O)SC(CC(=O)Nc2ccccc2C)C1=O (centres undefined),"inconclusive [activator, partial curve, poor fit]"
6,NS(=O)(=O)c1ccc(CCNCC(=O)N2CCC(Cc3ccccc3)CC2)cc1,"inconclusive [activator, single point]"
7,CCOc1cc(C=O)ccc1OCCCN1C(=O)NC(C)(C)C1=O,inactive
8,COc1ccc2[nH]c(-c3cccc(F)c3)cc(=O)c2c1,"inconclusive [activator, partial curve, poor fit]"
9,Cc1ccc(Cn2nc(C)c(C(=O)NCC(c3ccc(F)cc3)N3CCOCC3)c2Cl)cc1 (centres undefined),inactive
10,O=C(NC(CO)C(=O)OCc1ccccc1)OCc1ccccc1 (centres undefined),inactive
11,O=S(=O)(c1ccc(Cl)cc1)N1CCN(C(=S)Nc2ccccc2F)CC1,"inconclusive [activator, single point]"
12,Cn1ncc([N+](=O)[O-])c1C(=O)Nc1ccc(-c2ccccc2)cc1,"inconclusive [activator, full curve, poor fit]"
13,Cc1c(C(=O)N2CCN(C)CC2)oc2c1C(=O)CC(C)(C)C2,"inconclusive [activator, single point]"
14,CCOC(=O)CC(=O)CSc1nc2ccc(C)cc2cc1C#N,"inconclusive [activator, partial curve, poor fit]"
15,CCOC(=O)c1cnc2ccc(OCC)cc2c1NCc1ccccc1OC,inactive
16,COc1cc(NC(=O)c2ccno2)cc(C(=O)Nc2cccc(C(F)(F)F)c2)c1,inactive
17,O=C(NCCCn1ccnc1)Nc1cccc(Cl)c1,inactive
18,CCN1CCN(CC(=O)Nc2nc3ccc(C)cc3s2)CC1,"inconclusive [activator, partial curve, poor fit]"
19,COCCn1cnnc1SCC(=O)Nc1sc2c(c1C#N)CCC2,inactive
20,CN(C(=O)COC(=O)c1cc(=O)[nH]c2ccccc12)C1CCCCC1,"inconclusive [activator, partial curve, poor fit]"
21,CC(C)C(NC(=O)OCc1ccccc1)C(=O)OCC(=O)N1CCCCC1 (centres undefined),"inconclusive [activator, partial curve, poor fit]"
22,O=C(c1noc2c1CCCC2)N1CCc2ccccc2C1,"inconclusive [activator, partial curve, poor fit]"
23,O=C1C(Cl)=C(Nc2ccccc2O)C(=O)N1CCc1ccccc1,"inconclusive [activator, partial curve, poor fit]"

row,SMILES,Potency
1,CN1CCc2c(sc3c2C(=O)NC(c2ccco2)N3)C1 (centres undefined),inactive
2,COc1ccc(C(=O)Nc2ccc(NC(=O)c3ccco3)cc2)cc1,inactive
3,O=C(Nc1cccc(Cl)c1)c1ccc(-n2cncn2)c([N+](=O)[O-])c1,"inconclusive [activator, single point]"
4,c1ccc2[nH]c(CSc3nccs3)nc2c1,"inconclusive [activator, partial curve, poor fit]"
5,O=C(CSCc1c(Cl)cccc1Cl)Nc1nccs1,"inconclusive [activator, partial curve, poor fit]"
6,O=C(COC(=O)CC12CC3CC(CC(C3)C1)C2)Nc1ncc(Cl)cc1Cl,inactive
7,COCCN(C(=O)Nc1ccccc1)C(C)c1cccnc1 (centres undefined),"inconclusive [activator, single point]"
8,CCCN1C(=O)/C(=C\C=C2/Sc3ccccc3N2CCO)SC1=S,inactive
9,Cc1onc(-c2ccccc2)c1C(=O)NNC(=S)NC(=O)c1ccc(F)cc1,"inconclusive [activator, single point]"
10,O=C(Nc1nc2ccccc2n1CCN1CCOCC1)c1ccccc1,"inconclusive [activator, single point]"
11,Cn1cccc1-c1cc(C(=O)N/N=C/c2ccccc2Cl)[nH]n1,"inconclusive [activator, partial curve, poor fit]"
12,Cc1ccc(NC(=S)c2ccc3ccccc3n2)c(C)c1,"inconclusive [activator, full curve, poor fit]"
13,O=C(/C=C/c1cn(-c2ccccc2)nc1-c1cccs1)NCCN1CCOCC1,"inconclusive [activator, partial curve, poor fit]"
14,O=C(Nc1ccc(Cl)c(Cl)c1)Nc1ccccc1O,"inconclusive [activator, partial curve, poor fit]"
15,Nc1ncc(-c2ccc([N+](=O)[O-])cc2)cn1,"inconclusive [activator, full curve, poor fit]"
16,COc1ccc(C2=NOC(CNC(N)=S)C2)cc1 (centres undefined),"inconclusive [activator, full curve, poor fit]"
17,Nc1c(Cl)ncnc1N/N=C/c1ccccn1,"inconclusive [activator, partial curve, poor fit]"
18,O=C(NN=C1CCC(=NNC(=O)c2ccccn2)CC1)c1ccccn1,inactive
19,O=[N+]([O-])c1cc(/C=N/Nc2nc3ccccc3[nH]2)c(O)cc1O,"inconclusive [activator, partial curve, poor fit]"
20,COc1ccc2cc(-c3ccccc3)c(=O)oc2c1,"inconclusive [activator, partial curve, poor fit]"
21,CCN(CC)Cc1cc(O)c(CN(CC)CC)cc1O,inactive
22,COc1cccc(-c2nnc(Nc3nc4c(F)cccc4s3)o2)c1,"inconclusive [activator, partial curve, poor fit]"
23,O=C(N/N=C/c1cccc(OC(=O)c2cccc(Br)c2)c1)c1ccncc1,"inconclusive [activator, single point]"
